# Source: PubChem BioAssay AID588591 (National Center for Advancing Translational Sciences (NCATS), 2011)
# Where “and” joins values, the source holds several entries; their conditions need not be identical. Equal entries are not always repeated. The campaign covered roughly 390,000 compounds. About 4,700 (1.2%) were called active. Inconclusive means that the source gave no clear call. Such entries were picked first, then a sample of the others. The call rests on the fitted dose curve; in most records, active means well fitted inhibition curve with a large enough effect; inconclusive means small, poorly fitted or top-dose-only effect, or another doubt; inactive means no such curve, though single readings can be large or run the other way. Potencies beside an inconclusive call are fits to weak or partial responses and may not hold up. Some structures have more than one record in an assay (separate samples or runs), and their calls can disagree.
# Molecular target: DNA polymerase eta (Homo sapiens) (UniProt Q9Y253)
# Test: qHTS for Inhibitors of Polymerase Eta
# Conditions: recombinant Pol eta, fluorescent DNA replication assay; series mostly up to 114 µM
# Procedure, shortened: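 Pol eta (10 nM) was preincubated with compounds for 15 min at room temperature, after which fluorescent replication substrate (50 nM final) was added to start the reaction. Fluorescence was read kinetically at 0 and 10 min.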
# Potency means the concentration at half of the fitted maximal effect; tags describe the fitted curve by direction and shape.
# Sequence of UniProt Q9Y253 (Q9Y253 whole entry, looked up): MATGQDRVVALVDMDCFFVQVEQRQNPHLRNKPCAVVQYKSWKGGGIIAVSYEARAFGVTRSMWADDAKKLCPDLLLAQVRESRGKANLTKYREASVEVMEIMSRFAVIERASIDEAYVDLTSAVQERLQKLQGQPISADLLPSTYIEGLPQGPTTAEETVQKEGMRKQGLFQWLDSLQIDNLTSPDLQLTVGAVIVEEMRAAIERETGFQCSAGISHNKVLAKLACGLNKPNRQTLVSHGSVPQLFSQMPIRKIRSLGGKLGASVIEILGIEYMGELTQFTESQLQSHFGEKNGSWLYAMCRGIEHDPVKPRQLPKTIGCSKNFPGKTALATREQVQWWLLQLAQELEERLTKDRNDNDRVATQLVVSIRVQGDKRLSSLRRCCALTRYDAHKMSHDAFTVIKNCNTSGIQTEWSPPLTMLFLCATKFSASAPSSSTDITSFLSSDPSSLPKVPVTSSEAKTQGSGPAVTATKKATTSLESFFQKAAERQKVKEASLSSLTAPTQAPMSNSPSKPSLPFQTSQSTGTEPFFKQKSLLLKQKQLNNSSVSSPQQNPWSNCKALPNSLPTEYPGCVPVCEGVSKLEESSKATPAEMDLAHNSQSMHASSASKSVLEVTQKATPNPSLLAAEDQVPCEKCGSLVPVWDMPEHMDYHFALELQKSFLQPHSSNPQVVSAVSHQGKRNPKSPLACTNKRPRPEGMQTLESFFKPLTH
row,SMILES,Potency
1,CC1Cc2ccccc2N1C(=O)COC(=O)c1c2c(nc3ccccc13)CCCCC2 (stereo unspecified),"inconclusive: 39.8 µM [inhibitor, single point]"
2,COC(=O)c1ccc(C(=O)NC(=S)Nc2ccc3nc(SC)sc3c2)cc1,"inconclusive: 4.47 µM [inhibitor, full curve]"
3,CCc1cccc(NC(=O)c2cc3c(=O)[nH]c4ccccc4c3n2C)c1,inactive
4,O=C(Nc1nnc(SCc2ccccn2)s1)C1CC(=O)N(c2ccc(F)cc2)C1 (stereo unspecified),active: 25.1 µM
5,COc1ccc(-c2noc(N(C)CC(=O)Nc3cccc(C(F)(F)F)c3)n2)cc1,"inconclusive: 50.1 µM [inhibitor, partial curve, poor fit]"
6,COc1cccc(C2CC(c3ccccc3C)n3nc(N)nc3N2)c1 (stereo unspecified),"inconclusive: 0.355 µM [inhibitor, partial curve, poor fit]"
7,O=C(Nc1ccccc1C(=O)OCc1cc(=O)n2c3c(sc2n1)CCCC3)c1ccccc1,inactive
8,O=C(N/N=C/c1ccc2c(c1)OCO2)c1cc(-c2ccco2)nc2ccccc12,"inconclusive: 50.1 µM [inhibitor, partial curve, poor fit]"
9,O=C1C(Cl)=C(NS(=O)(=O)c2ccc([N+](=O)[O-])cc2)C(=O)c2ccccc21,"inconclusive: 56.2 µM [inhibitor, partial curve, poor fit]"
10,COc1ccc(C(=O)N/N=C/c2ccc(OC(=O)c3cccc4ccccc34)c([N+](=O)[O-])c2)cc1,"inconclusive: 8.91 µM [inhibitor, full curve, poor fit]"
11,Cc1cc(C(=O)N/N=C/c2ccc(-c3ccc(C)c(Cl)c3)o2)n[nH]1,"inconclusive: 31.6 µM [inhibitor, partial curve, poor fit]"
12,COc1cc(C(=O)Nc2c(C(=O)O)[nH]c3ccc(Br)cc23)cc(OC)c1OC,inactive
13,O=C(O)CSc1nnc(CNc2cccc(C(F)(F)F)c2)n1Cc1ccco1,inactive
14,COc1ccc(/C=N/NC(=O)c2ccc(Cl)cc2)cc1Cn1cc(Cl)cn1,inactive
15,COc1ccc(CNC(=O)C2CCCN2C(=O)NCc2ccccc2)cc1 (stereo unspecified),inactive
16,O=C1NC(=S)S/C1=C1\Sc2ccccc2N1CCCS(=O)(=O)O,"inconclusive: 28.2 µM [inhibitor, partial curve]"
17,O=C(CSc1nc2ccc(Cl)cc2[nH]1)N1CCN(C(=O)c2ccco2)CC1,"inconclusive: 15.8 µM [inhibitor, full curve, poor fit]"
18,Cc1oc(C(=O)O)cc1COc1cccc2cccnc12,active: 8.91 µM
19,O=C(COc1ccccc1)Nc1ccc(-c2nnc(-c3ccco3)o2)cc1,"inconclusive: 15.8 µM [inhibitor, partial curve, poor fit]"
20,CC1(C)C(=O)Nc2ccccc2N1C(=O)COC(=O)c1ccc(NC(N)=O)cc1,"inconclusive: 79.4 µM [inhibitor, partial curve]"
21,Clc1ccc(OCc2nc(-c3ccc(-n4cccc4)cc3)no2)cc1,inactive
22,O=c1cc(-c2ccc(O)cc2)oc2c(O)c(O)c(O)c(O)c12,active: 1.58 µM

row,SMILES,Potency
1,Cn1cccc1C(=O)OCC(=O)NCc1ccc2c(c1)OCO2,"inconclusive: 28.2 µM [inhibitor, partial curve, poor fit]"
2,O=C(O)c1ccc(CN2C(=O)c3cccc4c([N+](=O)[O-])ccc(c34)C2=O)cc1,active: 22.4 µM
3,C[C@H](O)CNC(=O)c1[nH]cnc1C(=O)Nc1cccc(Cl)c1,inactive
4,CCOC(=O)c1ccc2c(c1)C1C=CCC1C(C(=O)OCC)N2 (stereo unspecified),"inconclusive: 79.4 µM [inhibitor, partial curve]"
5,Cn1nc(C(=O)Nc2ccc(S(=O)(=O)Nc3ncccn3)cc2)ccc1=O,active: 28.2 µM
6,COc1ccccc1Nc1nc(N)nc(CSC(=S)N2CC(C)CC(C)C2)n1 (stereo unspecified),"inconclusive: 44.7 µM [inhibitor, partial curve, poor fit]"
7,COc1cc(/C=C2\SC(=Nc3ccccc3)N(CCc3c[nH]c4ccccc34)C2=O)ccc1OC(C)C(=O)O (stereo unspecified),"inconclusive: 17.8 µM [inhibitor, full curve, poor fit]"
8,O=C1N/C(=N\S(=O)(=O)c2ccccc2)S/C1=C\c1cc([N+](=O)[O-])ccc1O,"inconclusive: 50.1 µM [inhibitor, partial curve]"
9,CC(C)(C)Nc1ncnc2c1cnn2-c1ccccc1,"inconclusive: 100 µM [inhibitor, partial curve, poor fit]"
10,Cc1cccc(OCCC(=O)OC(C)C(=O)Nc2ccc(Cl)cn2)c1 (stereo unspecified),"inconclusive: 89.1 µM [inhibitor, partial curve, poor fit]"
11,CCOc1ccc(NC(=O)c2cc(=O)c3cc(CC)ccc3o2)cc1,"inconclusive: 79.4 µM [inhibitor, single point]"
12,CCOC(=O)c1ccccc1Nc1nc2ccc(C)cc2n2nnnc12,"inconclusive: 89.1 µM [inhibitor, partial curve, poor fit]"
13,Cc1sc2nc(SCc3ccc(C(=O)O)cc3)n(Cc3ccco3)c(=O)c2c1C,active: 79.4 µM
14,CC(=O)N1c2ccc(S(=O)(=O)NCCC(=O)N3CCC(C)CC3)cc2CC1C (stereo unspecified),inactive
15,COc1ccc(Cn2ccnc2SCC(=O)Nc2ccc3c(c2)OCO3)cc1,inactive
16,CCCCN(Cc1ccccc1)C(=O)C1CCCN(S(=O)(=O)c2cnc[nH]2)C1 (stereo unspecified),"inconclusive: 79.4 µM [inhibitor, partial curve, poor fit]"
17,N#C/C(=C\c1ccc(O)c(O)c1)C(=O)NCCCc1ccccc1,inactive and active: 15.8 µM
18,Cc1cc(N/N=C/c2ccc(O)cc2)c2cccc(C)c2n1,"inconclusive: 56.2 µM [inhibitor, partial curve, poor fit]"
19,CC1=C(C(=O)OCC2CCCO2)C(c2ccncc2)C2=C(CC(C)(C)CC2=O)N1 (stereo unspecified),inactive
20,CSc1ccc(C(=O)NCC(=O)O)cc1[N+](=O)[O-],"inconclusive: 89.1 µM [inhibitor, partial curve, poor fit]"
21,Cc1cc(C)cc(NC(=O)CCNC(=O)c2ccc([N+](=O)[O-])cc2)c1,inactive
22,Cc1ccccc1OCC(=O)N/N=C/c1sc(=O)n(Cc2cccc(C(=O)O)c2)c1Cl,"inconclusive: 20 µM [inhibitor, full curve]"

row,SMILES,Potency
1,Cc1c(-c2ccccc2Cl)nc2ccccc2c1C(=O)O,"inconclusive: 100 µM [inhibitor, partial curve, poor fit]"
2,Cc1ccccc1C(=O)Nc1cccc(OCc2cc(=O)n3c4c(sc3n2)CCCC4)c1,inactive
3,COc1ccc2c(c1)c1c(c(=O)n(-c3ccc(C)cc3)c(=O)n1CC(=O)c1ccc(Cl)cc1)n2C,inactive
4,O=C(O)C1CC=CCC1C(=O)Nc1ccc2c(c1)OCCO2 (stereo unspecified),"inconclusive: 17.8 µM [inhibitor, partial curve, poor fit]"
5,Cc1ccc(C(C)C)c(OCC(=O)NNC(=O)C(C(C)C)N2C(=O)c3ccccc3C2=O)c1 (stereo unspecified),"inconclusive: 79.4 µM [inhibitor, partial curve, poor fit]"
6,O=C(OCc1cc(=O)n2nc(-c3cccs3)sc2n1)c1cccc(Cl)c1,inactive
7,Cc1ccc(N(CN2C(=O)c3ccccc3C2=O)C(=O)c2ccc([N+](=O)[O-])cc2[N+](=O)[O-])cc1,"inconclusive: 100 µM [inhibitor, partial curve, poor fit]"
8,COc1ccc(S(=O)(=O)c2c(N)n(Cc3ccco3)c3nc4ccccc4nc23)cc1,active: 7.94 µM
9,CN1/C(=C\C(=O)COC(=O)Cn2nnc(-c3ccccc3)n2)C(C)(C)c2ccccc21,"inconclusive: 70.8 µM [inhibitor, partial curve]"
10,CN(C)c1ccc(S(=O)(=O)NCC(=O)OCC(=O)Nc2cccc(Cl)c2)cc1[N+](=O)[O-],"inconclusive: 89.1 µM [inhibitor, partial curve, poor fit]"
11,NC(=O)c1ccsc1NC(=O)COC(=O)c1cc(=O)[nH]c2ccccc12,active: 39.8 µM
12,CCOC(=O)Cc1cc(C(=O)Nc2ccc(Br)cc2)sc1-c1ccc(C)cc1,inactive
13,NC(=O)N/N=C/c1ccc(-c2ccc(S(=O)(=O)Nc3ncccn3)cc2)o1,active: 35.5 µM
14,CS(=O)(=O)N(CC(=O)N1CCc2ccccc2C1)c1cccc(Br)c1,"inconclusive: 3.16 µM [inhibitor, partial curve, poor fit]"
15,Cc1ccc(S(=O)(=O)N(C)CC(=O)OCC(=O)c2ccc3c(c2)NC(=O)CO3)cc1,"inconclusive: 44.7 µM [inhibitor, partial curve]"
16,c1ccc(-c2cc(-c3nnc4sc(-c5ccccn5)nn34)[nH]n2)cc1,"inconclusive: 3.55 µM [inhibitor, full curve, poor fit]"
17,C#CCN1C(=O)S/C(=C\c2ccc(-c3ccc(Cl)c(C(=O)O)c3)o2)C1=O,active: 14.1 µM
18,C/C(C/C(C)=C1/SC(=S)NC1=O)=C1\SC(=S)NC1=O,active: 3.55 µM
19,Nc1ccc(Br)c2cccnc12,"inconclusive: 100 µM [inhibitor, partial curve, poor fit]"
20,COc1cc(/C=N/NC(=O)c2sc(N)c(C#N)c2C)ccc1O,inactive
21,C=Cc1ncc(OC)c2c1[nH]c1ccccc12,"inconclusive: 79.4 µM [inhibitor, partial curve, poor fit]"
22,CC(C)(C)c1ccc(S(=O)(=O)NCC(=O)Nc2sc3c(c2C(N)=O)CCCC3)cc1,"inconclusive: 25.1 µM [inhibitor, partial curve, poor fit]"
